These are yes or no findings as the source states them, for the method shown. Binding seen in cells or lysates may run through a third protein. Tags and fused reporters may be left off the sequences shown. One block for each binder: values may come before it.
Target: T1, GFP-tagged McIdas (GFP-McIdas), expressed in HEK 293T cells (not stated (human or mouse cDNA cloned)) (UniProt D6RGH6)
T1 sequence: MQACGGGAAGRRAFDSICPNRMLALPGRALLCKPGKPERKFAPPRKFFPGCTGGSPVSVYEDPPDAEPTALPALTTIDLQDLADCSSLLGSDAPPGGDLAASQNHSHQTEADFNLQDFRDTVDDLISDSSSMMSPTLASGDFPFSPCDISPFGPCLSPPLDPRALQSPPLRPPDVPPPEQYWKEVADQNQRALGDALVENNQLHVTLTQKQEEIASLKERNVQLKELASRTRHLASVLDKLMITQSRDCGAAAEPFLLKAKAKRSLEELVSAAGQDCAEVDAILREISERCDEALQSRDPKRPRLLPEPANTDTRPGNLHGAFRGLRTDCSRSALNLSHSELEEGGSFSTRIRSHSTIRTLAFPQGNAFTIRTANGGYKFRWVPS
Experiment: co-IP; HEK 293T cells co-transfected with GFP-McIdas or GFP alone and HA-STIL or SAS6-SNAP-Flag (tetracycline-dependent promoter); IP with anti-GFP on Protein A agarose

binding: no binding
B1: HA-STIL (SCL/TAL1 interrupting locus protein) (protein, UniProt Q15468 1-1287)
chain: MEPIYPFARPQMNTRFPSSRMVPFHFPPSKCALWNPTPTGDFIYLHLSYYRNPKLVVTEKTIRLAYRHAKQNKKNSSCFLLGSLTADEDEEGVTLTVDRFDPGREVPECLEITPTASLPGDFLIPCKVHTQELCSREMIVHSVDDFSSALKALQCHICSKDSLDCGKLLSLRVHITSRESLDSVEFDLHWAAVTLANNFKCTPVKPIPIIPTALARNLSSNLNISQVQGTYKYGYLTMDETRKLLLLLESDPKVYSLPLVGIWLSGITHIYSPQVWACCLRYIFNSSVQERVFSESGNFIIVLYSMTHKEPEFYECFPCDGKIPDFRFQLLTSKETLHLFKNVEPPDKNPIRCELSAESQNAETEFFSKASKNFSIKRSSQKLSSGKMPIHDHDSGVEDEDFSPRPIPSPHPVSQKISKIQPSVPELSLVLDGNFIESNPLPTPLEMVNNENPPLINHLEHLKPLQPQLYDEKHSPEVEAGEPSLRGIPNQLNQDKPALLRHCKVRQPPAYKKGNPHTRNSIKPSSHNGPSHDIFEKLQTVSAGNVQNEEYPIRPSTLNSRQSSLAPQSQPHDFVFSPHNSGRPMELQIPTPPLPSYCSTNVCRCCQHHSHIQYSPLNSWQGANTVGSIQDVQSEALQKHSLFHPSGCPALYCNAFCSSSSPIALRPQGDMGSCSPHSNIEPSPVARPPSHMDLCNPQPCTVCMHTPKTESDNGMMGLSPDAYRFLTEQDRQLRLLQAQIQRLLEAQSLMPCSPKTTAVEDTVQAGRQMELVSVEAQSSPGLHMRKGVSIAVSTGASLFWNAAGEDQEPDSQMKQDDTKISSEDMNFSVDINNEVTSLPGSASSLKAVDIPSFEESNIAVEEEFNQPLSVSNSSLVVRKEPDVPVFFPSGQLAESVSMCLQTGPTGGASNNSETSEEPKIEHVMQPLLHQPSDNQKIYQDLLGQVNHLLNSSSKETEQPSTKAVIISHECTRTQNVYHTKKKTHHSRLVDKDCVLNATLKQLRSLGVKIDSPTKVKKNAHNVDHASVLACISPEAVISGLNCMSFANVGMSGLSPNGVDLSMEANAIALKYLNENQLSQLSVTRSNQNNCDPFSLLHINTDRSTVGLSLISPNNMSFATKKYMKRYGLLQSSDNSEDEEEPPDNADSKSEYLLNQNLRSIPEQLGGQKEPSKNDHEIINCSNCESVGTNADTPVLRNITNEVLQTKAKQQLTEKPAFLVKNLKPSPAVNLRTGKAEFTQHPEKENEGDITIFPESLQPSETLKQMNSMNSVGTFLDVKRLRQLPKLF

binding: no binding
B2: HsSAS6-SNAP-FLAG (protein, UniProt Q6UVJ0 1-657)
chain: MSQVLFHQLVPLQVKCKDCEERRVSIRMSIELQSVSNPVHRKDLVIRLTDDTDPFFLYNLVISEEDFQSLKFQQGLLVDFLAFPQKFIDLLQQCTQEHAKEIPRFLLQLVSPAAILDNSPAFLNVVETNPFKHLTHLSLKLLPGNDVEIKKFLAGCLKCSKEEKLSLMQSLDDATKQLDFTRKTLAEKKQELDKLRNEWASHTAALTNKHSQELTNEKEKALQAQVQYQQQHEQQKKDLEILHQQNIHQLQNRLSELEAANKDLTERKYKGDSTIRELKAKLSGVEEELQRTKQEVLSLRRENSTLDVECHEKEKHVNQLQTKVAVLEQEIKDKDQLVLRTKEAFDTIQEQKVVLEENGEKNQVQLGKLEATIKSLSAELLKANEIIKKLQGDLKTLMGKLKLKNTVTIQQEKLLAEKEEKLQKEQKELQDVGQSLRIKEQEVCKLQEQLEATVKKLEESKQLLKNNEKLITWLNKELNENQLVRKQDVLGPSTTPPAHSSSNTIRSGISPNLNVVDGRLTYPTCGIGYPVSSAFAFQNTFPHSISAKNTSHPGSGTKVQFNLQFTKPNASLGDVQSGATISMPCSTDKENGENVGLESKYLKKREDSIPLRGLSQNLFSNSDHQRDGTLGALHTSSKPTALPSASSAYFPGQLPNS

Source: PMC13022133
